# Over roughly 33,000 sequences, “E-score (-0.5 to 0.5)” has its median near -0.04; the highest 2% begin near 0.36. The list shows a part of the results.
# Molecular target: T1, Hmlalpha2 (UniProt P0CY09)
# T1 sequence: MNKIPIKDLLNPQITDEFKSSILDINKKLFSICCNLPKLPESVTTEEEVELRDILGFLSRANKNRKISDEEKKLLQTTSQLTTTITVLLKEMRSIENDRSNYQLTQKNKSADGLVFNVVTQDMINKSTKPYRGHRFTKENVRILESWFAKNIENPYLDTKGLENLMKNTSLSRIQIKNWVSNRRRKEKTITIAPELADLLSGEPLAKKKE
# Test: PBM E-score (8-mer binding enrichment) (E-score (-0.5 to 0.5)); higher = stronger / more preferred TF binding; most listed sequences are background and not binding sites
# Settings: protein concentration: 200 nM; construct: GST-full length
# Description: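 Universal 'all 10-mer' protein binding microarrays (Agilent AMADID 015681) probed with GST-tagged S. cerevisiae TFs (full-length or DBD) made by in vitro transcription/translation (PURExpress), about 100-200 nM. Bound TF was detected with fluorescent anti-GST. Each ungapped 8-mer (which stands for itself and its reverse complement) is scored by the PBM enrichment score (E-score), a modified Wilcoxon-Mann-Whitney statistic from -0.5 to +0.5, computed with the Universal PBM Analysis Suite. Scale: above 0.35 generally sequence-specific binding.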
row,Sequence,PBM E-score
1,CCCTAACC,-0.295
2,CCTACTAA,-0.0964
3,TGCGAGAA,-0.206
4,CCGGTTCC,-0.243
5,ACTTATCG,-0.274
6,CGAGCCCG,-0.15
7,CAACATTA,0.293
8,ACCACTCT,-0.283
9,ACGTCGAC,0.136
10,ATACCAAG,0.149
11,ACTCCTAC,-0.0242
12,AGACTCGG,-0.282
13,CTGCCCAC,-0.0615
14,GCATAAGC,0.119
15,CCCAGAGA,-0.25
16,ACCATACC,-0.367
17,AATATACC,-0.0669
18,CATGTGTC,0.152
19,AAGTGGGC,-0.0131
20,ACGAGGAG,-0.089
21,AAAAGTTT,0.0603
22,CCCTACGA,-0.0973
23,CGACCTCA,-0.0691
24,ATGAACCA,0.162
25,ATCAGCAT,0.155

row,Sequence,PBM E-score
1,AGGGTCTG,-0.296
2,GATTGACA,0.293
3,AGTCTAAT,0.118
4,CCTGTGCA,-0.00896
5,CAGACCAG,-0.167
6,CCAAAGAA,-0.0602
7,AGACATTC,0.0901
8,AGTACCGA,-0.2
9,AGAGCGCC,-0.0601
10,CCACAGGC,-0.337
11,GCCACAAC,0.076
12,AAGCCCGC,-0.159
13,GACTGATC,0.0656
14,AGCCATCG,-0.171
15,GATTGACC,-0.0676
16,ACGAGCCA,0.0562
17,ATAGATAA,-0.0423
18,ACTCGACC,-0.0795
19,CACTGTAG,0.172
20,CAGCACTG,-0.243
21,GGCAAGGA,-0.139
22,CCGGTAAA,-0.0308
23,AAGAGAGC,-0.247
24,AAGTCGCA,0.0216
25,CCATAAGC,-0.206

row,Sequence,PBM E-score
1,ATGGCGCC,-0.249
2,AGACGGCA,-0.244
3,TATGTCAA,0.426
4,CCGATCCG,-0.204
5,AATCGCGA,-0.0775
6,AAGCGGGC,-0.371
7,CCTATCGC,-0.169
8,ATACCTCG,0.112
9,AAATTGTT,0.109
10,CCACGCAC,-0.0131
11,ATATGGTC,-0.00104
12,ATCTGCCA,-0.149
13,CTCGCTTA,-0.0641
14,GGAGGGCC,-0.247
15,CTGACCTA,-0.0658
16,ACCACACA,0.215
17,ATGATTGA,0.113
18,ATAACCTG,-0.0623
19,ACAGCTGC,-0.0756
20,CATTGTAA,0.364
21,ACCGCTGC,-0.138
22,ACGACTCC,-0.141
23,CATCATGA,0.0884
24,AACCGCAG,-0.283
25,AGCTGAAT,-0.108

row,Sequence,PBM E-score
1,CATCAGTA,-0.027
2,CCTAACGC,0.163
3,CACTGTTA,0.0828
4,CGTTCCTC,-0.169
5,AACCGAGG,-0.324
6,CCCCGCCG,-0.367
7,GAGTTGTA,0.235
8,CATTAACA,0.409
9,AGTGGAAT,-0.0913
10,CGACTGAG,-0.223
11,ATAACTTA,0.288
12,ATTAAACA,0.322
13,AATATCTA,-0.00097
14,CAGCTCCC,-0.325
15,GGTGACGA,-0.051
16,GAACCTCC,-0.15
17,CACCTCAA,-0.0285
18,CCCTAGGG,-0.332
19,ATGACATC,0.113
20,AAAGACCA,-0.193
21,CTTGCCAA,0.015
22,TTCAGGAA,-0.148
23,CGCCTACG,-0.0054
24,ACTGAATG,-0.0924
25,GGAACCTA,-0.0811

row,Sequence,PBM E-score
1,ATTAGGCG,-0.111
2,AATAATCT,-0.0149
3,TGACCAAA,-0.0837
4,ATGAACGA,0.00742
5,GTTAGATA,0.111
6,CCGTAAGG,-0.316
7,CACATGCC,0.209
8,ACTCGCAT,0.146
9,CTTGGGGA,0.0516
10,AGTAAAGG,0.157
11,AGAGGTGG,-0.206
12,GAGCAGAC,-0.137
13,CACGCGAG,0.152
14,TGACAACA,0.306
15,ACTAGGCC,-0.32
16,GGCTTTTA,-0.0499
17,CGGTACCG,-0.0635
18,ATCGTAAC,0.156
19,ACGGTGGG,-0.215
20,AATATGTC,0.167
21,GCTGGTCC,-0.127
22,AAATAAGC,0.0535
23,ACTTGTAA,0.381
24,CGCGAGGA,-0.0954
25,CTGTCTAA,0.0701

row,Sequence,PBM E-score
1,TCTAGGCA,-0.106
2,CACGGTCG,-0.112
3,TCCAAGCA,-0.164
4,GATTCCGC,-0.101
5,CGAAAAGC,-0.239
6,TGTCGTAA,0.261
7,CCATTCGC,-0.334
8,CAGAGGAA,-0.186
9,CCCGTGTC,0.168
10,GCCAACTA,-0.0217
11,ATTTAGTC,0.0338
12,AGGGATCG,-0.0672
13,CGTGAGGC,-0.212
14,CAAGGCCA,-0.111
15,CACCTCAG,-0.226
16,CTCATCCC,-0.361
17,ACGACTAT,0.144
18,GGCGGGAA,-0.199
19,CAGATTGC,-0.07
20,ACCGCCCT,-0.0986
21,TGGATACA,0.17
22,CATCGGGC,-0.211
23,AAAGTAAG,0.114
24,ACGACTAA,0.0186
25,CTAAACAC,0.296

row,Sequence,PBM E-score
1,GGCGGACC,-0.316
2,CCCGTTGA,-0.113
3,GCCAGCAA,-0.128
4,ACACCCCC,-0.00773
5,CGCCGACG,0.00959
6,GTGGGAAC,-0.151
7,CAGCTTCC,-0.209
8,GGCGCCAC,-0.281
9,CATCGATA,0.0588
10,CACCCGCA,-0.203
11,AACAACAT,0.385
12,GCGCTTAC,0.106
13,AGTGTAGG,0.206
14,TGCGGACA,-0.129
15,GGGCTACA,-0.0145
16,ACTCAAGT,0.139
17,AGATTTTG,0.102
18,CACAGAGC,0.0994
19,GACATAAC,0.297
20,CTTAGCAA,-0.0443
21,CACGTGCA,0.14
22,GAAATTCA,0.119

# — the supplement of paper PMC3334620
